In patent US20190031729A1 (Pieris, published 2019):

T1: huLAG-3-Fc (human LAG-3 extracellular domain fused to human IgG1 Fc fragment), R&D Systems (human, UniProt P18627 23-450)
T1 construct: extracellular domain; Bought from R&D Systems; also called human LAG-3-Fc fusion; recombinant human LAG-3-Fc; not shown: human IgG1 Fc fragment
T1 sequence (looked up): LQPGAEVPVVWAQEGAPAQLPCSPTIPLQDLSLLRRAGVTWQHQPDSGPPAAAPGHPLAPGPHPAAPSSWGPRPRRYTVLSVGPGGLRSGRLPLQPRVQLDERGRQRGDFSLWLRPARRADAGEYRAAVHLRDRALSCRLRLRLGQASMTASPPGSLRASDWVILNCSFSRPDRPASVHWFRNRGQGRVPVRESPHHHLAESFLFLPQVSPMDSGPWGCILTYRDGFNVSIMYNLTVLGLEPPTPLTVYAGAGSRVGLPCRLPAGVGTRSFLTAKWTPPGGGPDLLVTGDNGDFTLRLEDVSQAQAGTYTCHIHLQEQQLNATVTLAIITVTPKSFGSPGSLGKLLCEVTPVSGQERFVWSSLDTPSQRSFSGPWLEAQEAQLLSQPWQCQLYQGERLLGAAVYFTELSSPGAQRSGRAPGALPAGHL

T2: human LAG-3 (huLAG-3) on cells (human, UniProt P18627 23-525)
T2 construct: whole, on cells; also called CHO-huLAG-3; CHO::huLAG-3
T2 sequence (looked up): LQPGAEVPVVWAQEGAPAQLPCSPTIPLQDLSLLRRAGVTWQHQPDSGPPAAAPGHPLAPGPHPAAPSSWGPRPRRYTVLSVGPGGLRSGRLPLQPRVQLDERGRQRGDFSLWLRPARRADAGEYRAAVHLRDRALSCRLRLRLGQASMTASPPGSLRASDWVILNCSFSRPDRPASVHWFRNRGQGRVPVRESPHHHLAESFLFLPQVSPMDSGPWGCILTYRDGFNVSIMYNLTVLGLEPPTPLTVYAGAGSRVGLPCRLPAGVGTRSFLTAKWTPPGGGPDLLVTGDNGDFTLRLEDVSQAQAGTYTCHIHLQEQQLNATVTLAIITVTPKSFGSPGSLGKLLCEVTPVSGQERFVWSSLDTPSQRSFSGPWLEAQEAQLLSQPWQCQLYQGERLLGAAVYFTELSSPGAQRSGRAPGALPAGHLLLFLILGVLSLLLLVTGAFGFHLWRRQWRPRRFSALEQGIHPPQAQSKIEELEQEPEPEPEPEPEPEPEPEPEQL


Legend:
[1] = target: T1, huLAG-3-Fc (human LAG-3 extracellular …); assay: SPR Biacore T200, huLAG-3-Fc captured by anti-human IgG Fc, mutein as analyte, 1:1 model
Method: (§1) The anti-human IgG Fc antibody (GE Healthcare) was immobilized on a CM5 sensor chip using standard amine chemistry: the carboxyl groups on the chip were activated using 1-ethyl-3-(3-dimethylaminopropyl)-carbodiimide (EDC) and N-hydroxysuccinimide (NHS). […] Residual non-reacted NHS-esters were blocked by passing a solution of 1M ethanolamine across the surface. The reference channel was treated in an analogous manner.
(§2) All measurements were performed at 25° C. […] Prior to the protein measurements three startup cycles were performed for conditioning purposes. Data were evaluated with Biacore T200 Evaluation software (V 2.0). Double referencing was used and the 1:1 binding model was used to fit the raw data.

[2] = target: T2, human LAG-3 (huLAG-3) on cells; assay: FACS on CHO cells stably transfected with huLAG-3
[3] = target: T1, huLAG-3-Fc (human LAG-3 extracellular …); assay: competition FACS: 3 nM huLAG-3-Fc binding to MHC class II on A375 cells, blocked ligand MHC class II, detection with anti-human IgG Fc-PE
Method: (§3) Cells were washed twice in ice-cold PBS, re-suspended in PBS-FCS and incubated 30 min on ice with phycoerythrin labelled anti-human IgG Fc antibody (Jackson Immunologics).

[4] = target: T3, cyLAG-3-Fc (extracellular domain of cynomolgus LAG-3 fused via Factor Xa cleavage site and (G4S)3-linker to … (cynomolgus)); assay: SPR Biacore, LAG-3-Fc captured by anti-human IgG Fc, mutein as analyte
T3 construct: also called recombinant cynomolgus LAG-3
Method: as §1, §2

[5] = target: T1, huLAG-3-Fc (human LAG-3 extracellular …); assay: as above
Method: as §1, §2

[6] = target: T1, huLAG-3-Fc (human LAG-3 extracellular …); assay: competition FACS: inhibition of 3 nM huLAG-3-Fc binding to MHC class II on A375 cells
Method: as §3

[7] = target: T2, human LAG-3 (huLAG-3) on cells; assay: FACS on CHO cells transfected with huLAG-3
[8] = target: T4, cynomolgus LAG-3 on CHO cells (cynomolgus); assay: FACS on CHO cells transfected with cynomolgus LAG-3
T4 construct: whole, on cells; also called CHO::cyLAG-3; CHO cells transfected with cynomolgus LAG-3

[9] = target: T1, huLAG-3-Fc (human LAG-3 extracellular …); assay: competition FACS: 3 nM huLAG-3-Fc binding to MHC class II on A375 cells, blocked ligand MHC class II; the legend entry SEQ ID NO: 3 has lost its marker, the asterisk curve is the only one left over
Method: as §3

[10] = target: T2, human LAG-3 (huLAG-3) on cells; assay: FACS on CHO cells stably transfected with huLAG-3; remark: listed apart in the source

Row | Binder | Kd [1] | koff [1] | kon [1] | EC50 [2] | IC50 (read off the curve) [3] | Kd [4] | koff [4] | kon [4] | Kd [5] | koff [5] | kon [5] | IC50 [6] | EC50 [7] | EC50 [8] | binding result [9] | binding result [10]
1 | lipocalin mutein SEQ ID NO: 7 (designed binder, Human tear lipocalin mutein; also called parental lipocalin mutein; LAG-3 specific hTlc mutein) ASDEEIQDVSGTWYLKAMTVDSDCFWIEEWSVTPMTLTTLEGGNLEAKVTMDIFGFWQEVKAVLEKTDEPGKYTADGGKHVAYIIRSHVKDHYIFYSEGECAGFPVPGVWLVGRDPKNNLEALEDFEKAAGARGLSTESILIPRQSETSSPGSAWSHPQFEK | 0.287 µM | 0.04 s⁻¹ | 100000 M⁻¹ s⁻¹ | 0.029 µM | ~0.003 µM |  |  |  |  |  |  |  |  |  |  | 
2 | lipocalin mutein SEQ ID NO: 10 (designed binder, Human tear lipocalin mutein; also called parental lipocalin mutein; LAG-3 specific hTlc mutein) ASDEEIQDVSGTWYLKAMTVDETCWWYVDHSVTPMTLTTLEGGNLEAKVTMNLWGFWQEVKAVLEKTDEPGKYTADGGKHVAYIIRSHVKDHYIFYSEGECQGWPVPGVWLVGRDPKNNLEALEDFEKAAGARGLSTESILIPRQSETSSPGSAWSHPQFEK | 0.391 µM | 0.03 s⁻¹ | 70000 M⁻¹ s⁻¹ |  | ~0.003 µM |  |  |  |  |  |  |  |  |  |  | 
3 | lipocalin mutein SEQ ID NO: 11 (designed binder, Human tear lipocalin mutein; also called optimized LAG-3 specific lipocalin mutein) ASDEEIQDVSGTWYLKAMTVDSDCFWIDDVSVTPMTLTTLEGGNLEAKVTMDIFGFWQEVKAVLEKTDEPGKYTADGGKHVAYIIRSHVKDHYIFYSEGECAGYPVPGVWLVGRDPKNNLEALEDFEKAAGARGLSTESILIPRQSETSSPGSAWSHPQFEK |  |  |  |  |  | 0.0261 µM | 0.108 s⁻¹ | 4.16e+06 M⁻¹ s⁻¹ | 0.00056 µM | 0.00199 s⁻¹ | 3.52e+06 M⁻¹ s⁻¹ | 0.0011 µM | 0.00037 µM | 0.0199 µM |  | 
4 | lipocalin mutein SEQ ID NO: 13 (designed binder, Human tear lipocalin mutein; also called optimized LAG-3 specific lipocalin mutein) ASDEEIQDVSGTWYLKAMTVDSDCFWIEEWSATPMTLTTLEGGDLEAKVTMDIFGFWQEVKAVLEKTDEPGKYTADGGKHAAYIIRSHVKDHYIFYSEGECAGFPVPGVWLVGRDPKNNLEALEDFEKAAGARGLGTESILIPRQSETSSPGSAWSHPQFEK |  |  |  |  |  | 0.124 µM | 0.103 s⁻¹ | 831000 M⁻¹ s⁻¹ | 0.00049 µM | 0.000845 s⁻¹ | 1.73e+06 M⁻¹ s⁻¹ | 0.0016 µM | 0.00026 µM | 0.0261 µM |  | 
5 | lipocalin mutein SEQ ID NO: 14 (designed binder, Human tear lipocalin mutein; also called optimized LAG-3 specific lipocalin mutein) ASDEEIQDVSGTWYLKAMTVDSDCFWIDEVSVTPMTLTTLEGGNLEAKVTMDIFGFWQEVKAVLEKTDEPGKYTADGGKHVAYIIRSHVKDHYIFYSEGECEGFPVPGVWLVGRDPKNNLEALEDFEKAAGARGLSTESILIPRQSETSSPGSAWSHPQFEK |  |  |  |  |  | 0.0163 µM | 0.0928 s⁻¹ | 5.68e+06 M⁻¹ s⁻¹ | 0.00036 µM | 0.00102 s⁻¹ | 2.84e+06 M⁻¹ s⁻¹ | 0.003 µM | 0.00025 µM | 0.0191 µM |  | 
6 | lipocalin mutein SEQ ID NO: 15 (designed binder, Human tear lipocalin mutein; also called optimized LAG-3 specific lipocalin mutein) ASDEEIQDVSGTWYLKAMTVDSDCFWIEEWSATPMTLTTLEGGNLEAEATMDIFGFWQEVKAVLEKTDEPGKYTADGGKHVAYIIRSHVKDHYIFYSEGECAGFPVPGVWLVGRDPKNNLEALEDFEKAAGARGLSTESILIPRQSETSSPGSAWSHPQFEK |  |  |  |  |  | 0.0203 µM | 0.129 s⁻¹ | 6.37e+06 M⁻¹ s⁻¹ | 0.0005 µM | 0.00123 s⁻¹ | 2.48e+06 M⁻¹ s⁻¹ | 0.0021 µM | 0.00054 µM | 0.0104 µM |  | 
7 | lipocalin mutein SEQ ID NO: 16 (designed binder, Human tear lipocalin mutein; also called optimized LAG-3 specific lipocalin mutein) ASDEEIQDVSGTWYLKAMTVDSDCFWVDEVSVTPMTLTTLEGGNLEAKVTMDIFGFWQEVKAVLEKTDEPGKYTADGGKHVAYIIRSHVKDHYIFYSEGECAGFPVPGVWLVGRDPKNNLEALEDFEKAAGARGLSTESILIPRQSETSSPGSAWSHPQFEK |  |  |  |  |  | 0.0281 µM | 0.0502 s⁻¹ | 1.79e+06 M⁻¹ s⁻¹ | 0.00097 µM | 0.00238 s⁻¹ | 2.45e+06 M⁻¹ s⁻¹ | 0.0041 µM | 0.00036 µM | 0.0328 µM |  | 
8 | lipocalin mutein SEQ ID NO: 8 (designed binder, Human tear lipocalin mutein; also called parental lipocalin mutein; LAG-3 specific hTlc mutein) ASDEEIQDVPGTWYLKAMTVSGEDPEMTLESVTPMTLTTLEGGNLEANVTALIDGRCQEVKNVLEKTDEPGKYTEDGGKHVDYIIRSHVKDHYIFYFEGEGHGTPARTVALVGRDPTNNLEALEDFEKAAGARGLSTESILIPRQSETCSPGSAWSHPQFEK | 0.354 µM | 0.01 s⁻¹ | 30000 M⁻¹ s⁻¹ | 0.047 µM | ~0.03 µM |  |  |  |  |  |  |  |  |  |  | 
9 | lipocalin mutein SEQ ID NO: 9 (designed binder, Human tear lipocalin mutein; also called parental lipocalin mutein; LAG-3 specific hTlc mutein) ASDEEIQDVSGTWYLKAMTVDFVCLYDVPESVTPMTLTTLEGGNLEAKVTMQIWGELQEVKAVLEKTDEPGKYTADGGKHVAYIIRSHVKDHYIFYSEGYCVGYPVPGVWLVGRDPKNNLEALEDFEKAAGARGLSTESILIPRQSETSSPGSAWSHPQFEK | 0.5 µM | 0.0009 s⁻¹ | 2000 M⁻¹ s⁻¹ | 0.109 µM | ~0.1 µM |  |  |  |  |  |  |  |  |  |  | 
10 | negative control lipocalin mutein (SEQ ID NO: 3) (designed binder, hTlc-derived negative control; also called negative-control protein) ASDEEIQDVSGTWYLKAMTVDRECPEMNLESVTPMTLTTLEGGNLEAKVTMLISGRSQEVKAVLEKTDEPGKYTADGGKHVAYIIRSHVKDHYIFYSEGECHGKPVPGVWLVGRDPKNNLEALEDFEKAAGARGLSTESILIPRQSETSSPG |  |  |  |  |  |  |  |  |  |  |  |  |  |  | no binding (tested: 5000 nM) | no binding
11 | lipocalin mutein SEQ ID NO: 12 (designed binder, Human tear lipocalin mutein; also called optimized LAG-3 specific lipocalin mutein) ASDEEIQDVSGTWYLKAMTVDSDCFWIDEVSVTPMTLTTLEGGNLEAKVTMDIFGFWQEVKAVLEKTDEPGKYTADGGKHVAYIIRSHVKDHYIFYSEGECAGYPVPGVWLVGRDPKNNLEALEDFEKAAGARGLSTESILIPRQSETSSPGSAWSHPQFEK |  |  |  |  |  | 0.0219 µM | 0.0953 s⁻¹ | 4.36e+06 M⁻¹ s⁻¹ | 0.00054 µM | 0.00192 s⁻¹ | 3.54e+06 M⁻¹ s⁻¹ | 0.0021 µM | 0.00078 µM | 0.0293 µM |  | 
